These results are taken from the RNAGym collection of RNA variant scans (doi:10.1093/nar/gkz1192).

The chains are these.
B1: CPEB3 Ribozyme (parent)
chain: UAACAGGGGGCCACAGCAGAAGCGUUCACGUCGCAGCCCCUGUCAGAUUCUGGUGAAUCUGCGAAUUCUGCUGUAUAUCUC

Read counts are not given, so values of variants with three or more changes are uncertain.

This series covers variants of B1. Description: self-cleavage, relative activity (ratio to wild type); higher = more cleavage; in vitro, sequencing. In a few lines:
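Barcoded CPEB3 ribozyme mutants, produced by rounds of error-prone PCR, self-cleaved while being transcribed with T7 RNA polymerase for 5 hours at 37°C and during a subsequent 15 min DNase I step before EDTA was added. Sequencing of template-switched cDNA on Illumina gave cleaved and total reads, and DNA sequencing assigned barcodes to variants. Each variant's relative activity is its cleaved/total read fraction divided by the unmutated ribozyme's fraction, averaged across three batches. A variant needed a minimum of 5 reads.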
Consider G9A U25G A35G U41C U58C U67A U72C, for which the self-cleavage was 0.05. In the case of G10A A13G C37U A57G A64G U69A U80C it was 0.05; in that of G10A A20U U25C A45U, 0.18; in that of G9U A15G U43G G73A U80G, 0.27. Then G9A U25C A64U U66C, with 0.06. In the case of G9C U26C A35C U76A it was 0.18.

In the case of G9U U49C A64G G73A A75U, the self-cleavage stood at 0.04. Then G10A A13C A45G U51C U54C, with 0.05. Then G9U A18U A45G U60C G73A, with 0.06; and G9U G42A U66C G70A U78C, with 0.05; and G9C A28G A57C U67C, with 0.04. Take G9U U26C U69A: the self-cleavage amounted to 0.17.

For G9U U41C U54A, the self-cleavage stood at 0.21. In the case of G9A U49C U51C U60A U72C it was 0.14; in that of G9U C23A G53A U80C, 0.05; in that of G9A U26G A65G, 0.06.

In the case of G9A U51C A75G, the self-cleavage was determined as 0.14.

For the variant G9C G10A U67C U72C A75G U80C, the self-cleavage was determined as 0.08. Then G9A C12U C23U U25C A28G U74C, with 0.06. Take G9U U72C U76C: the self-cleavage amounted to 0.34. In the case of G10A A18G U26C A28U C32U U41G it was 0.04. Then G9U C40U U54C U74A, with 0.25; and G9U G24A U25C U31A A64G U72C, with 0.03; and G9U C29U U31C A47U, with 0.06. For the variant G9A C17U U31A U43G U58C A64U U80A, the self-cleavage is 0.04. Then G10A A15G A20U U25C A47G U51A A77U, with 0.07; and G9A U25A U69G U78C, with 0.25; and G9A C11G G19C U31A A65G U78C, with 0.02. In the case of G9C A21G A47U G53C U74C U80C it was 0.07. As to G9C G24A U25C U49C, the self-cleavage is 0.11. Then G9U G30A U41C, with 0.18. In the case of G10A A15C U26C C29G C37U A64G it was 0.04; in that of G9U U25C U58C, 0.05. In the case of G9U U72C U80A it was 0.07; in that of G9C A13U A20G A45U A56U U67C, 0.09. Turning to G9U G10A A35G A45G U51A, the self-cleavage came out at 0.2. In the case of G9A U31C U54A U74C it was 0.33; in that of G9C A21G U60A, 0.05; in that of G9A U26A G63U, 0.32. In the case of G9C G30A U80G it was 0.33; in that of G9C A45C U78C, 0.28; in that of G9A U26A G46U A56G U58G A65G, 0.03.

As for G9U U25C C32U, the self-cleavage was 0.12. Turning to G9U A15G A21G A28G U80C, the self-cleavage worked out at 0.42. Then G10A A15G C29U U69A, with 0.07. In the case of G9C U69C C79U it was 0.25; in that of G9A G10A G30U U49G, 0.07; in that of G9U U25C U26C U41A, 0.04.

Regarding G9A G24A U41A C62A U80C, the self-cleavage is 0.07. Then G10A A13G U49C, with 0.29; and G9A G33U A45G U67A U72A A77G, with 0.06. Then G9U A13G A21G A35G U54A U80C, with 0.05; and G9U U25C U43C A45G U67C, with 0.05; and G9A U51A U58G C71A A75G, with 0.04. In the case of G9U A28C C59A it was 0.08. In the case of G9A G19A A20G U31C U67A U69A U72C, the self-cleavage stood at 0.03. In the case of G9U U25C U54G it was 0.13. In the case of G9A C11G G19C U31A A65G U72A A77U it was 0.1; in that of G9C U31C U49A A56G U72C, 0.05. In the case of G10A A18G U25A it was 0.08; in that of G9A U51A A65G, 0.12. Turning to G10A A20U U26C A35G C37U U43C, the self-cleavage is 0.44.

G9U U26A A77U: the self-cleavage is 0.21. In the case of G9U A20G U49C U54C A75G it was 0.06. In the case of G9U A13U G46A U49A A65G it was 0; in that of G9A C27U C32G U54C C62U, 0.05. Then G10A A15U U48C U51A, with 0.08.

Regarding G9U U31C A57G U69C, the self-cleavage worked out at 0.21. As for G9U C29U A35U A45G U49C, the self-cleavage was 0.04. For G9A G19C C40G U54C A77G, the self-cleavage worked out at 0.1. On to G9A G33C U74C, for which the self-cleavage amounted to 0.05. In the case of G9U G24A G73C it was 0.29. Then G9A G19U G52A, with 0.25; and G9A U43C A47U, with 0.34; and G10A A13G U51C A64U, with 0.26. In the case of G9A U26C U41C U67A U72C it was 0.07; in that of G9U A15U C44U U66C U72A A77G, 0.07. Regarding G9U U25C U43C A47G U51C U60C U66C, the self-cleavage was found to be 0.26.

Consider G9A U60C U72C U80A, for which the self-cleavage was determined as 0.35. In the case of G9U A13G A28U A64G it was 0.23. In the case of G9U U25A U60C G73A it was 0.31; in that of G10A A20G U60C, 0.23; in that of G9A G10U A21G A45C A57G U66C U78C, 0.14. Then G9A U49C A56G U72G, with 0.32.
